The record followed here is paper PMC4807272, “Structural Determinants of Oligomerization of the Aquaporin-4 Channel*” (The Journal of Biological Chemistry, 2016).

By stoichiometry N is commonly meant a count of units in the complex or per binding partner.

The data set concerns the molecule itself. Put plainly: native gel or EMSA; BN-PAGE (8% bis-tris gel, pH 7.0, on ice) of whole-cell lysates of transfected HEK293 cells in 1% Triton X-100 BN lysis buffer, then immunoblot (anti-AQP4 or anti-GFP) and densitometry; self-association: tetramer, dimer, monomer bands. (In EMSA bound probe runs differently from free probe, usually more slowly.)

B1: AQP4 TM5 compound mutant (I189A/I199A/F203A), C-terminal GFP fusion (natural protein, human)
chain: MSDRPTARRWGKCGPLCTRENIMVAFKGVWTQAFWKAVTAEFLAMLIFVLLSLGSTINWGGTEKPLPVDMVLISLCFGLSIATMVQCFGHISGGHINPAVTVAMVCTRKISIAKSVFYIAAQCLGAIIGAGILYLVTPPSVVGGLGVTMVHGNLTAGHGLLVELIITFQLVFTIFASCDSKRTDVTGSAALAIGFSVAAGHLAAINYTGASMNPARSFGPAVIMGNWENHWIYWVGPIIGAVLAGGLYEYVFCPDV[… about 60 residues …]
notes: aquaporin-4 (AQP4), human cDNA in pDEST47; M1 isoform (323 residues); source: HEK293, transiently transfected, in Triton X-100 lysate; not shown: GFP, C-terminal, kept
For B1, the “stoichiometry N” value worked out at 4.
